Measurements: PubChem BioAssay AID463173 (ICCB-Longwood Screening Facility, Harvard Medical School, 2010)
The campaign covered roughly 52,000 compounds. About 1,700 (3.3%) were called active. Rule as the data show it: active = survival mostly below about 52% (no sharp cut-off); inactive = mostly above about 56%. This is one part of the list.

Each compound was assayed on Wild type (assay: growth inhibition of S. aureus wild type versus tarO mutant, primary screen, teichoic acid synthesis inhibitors, RN4220, OD600 (AID 463173)). Details: S. aureus RN4220 wild type/DeltatarO growth, OD600, 18 h, stronger effect = lower value, screened at 18.75 µg/mL (by protocol).

Compound | survival
O=C(CCn1c(=O)c2cccn2c2cccnc21)N1CCN(c2cccc(C(F)(F)F)c2)CC1 | inactive: 45%
Cc1cccc(CS(=O)(=O)c2ncc(Cl)c(C(=O)Nc3nnc(C(C)C)s3)n2)c1 | inactive: 46%
Cc1ccc(NC(=O)C2CCCN(S(=O)(=O)c3c(C)n[nH]c3C)C2)c(C)c1 (stereo not drawn) | inactive: 124%
COc1ccc(OC)c(/C=C/c2nc3ccccc3c(=O)n2-c2ccc(F)c(Cl)c2)c1 | inactive: 74%
COCc1nnc(NC(=O)c2cc(OC)c(OC)c(OC)c2)s1 | inactive: 90%
N#Cc1ccc(-c2ccc(F)cc2)n(CC(=O)N2CCCC2)c1=O | inactive: 131%
O=c1oc2ccccc2cc1-c1nnc(-c2ccncc2)o1 | inactive: 112%
CCC(C(=O)Nc1cc(C)ccc1C)n1c(=O)c(C(F)(F)F)nc2ccccc21 (stereo not drawn) | inactive: 99%
CCOC(=O)C1=C(O)/C(=C\c2sccc2C)N=C1C | inactive: 119%
COc1ccc(C(=O)/C=C/c2cn(CC(O)CN3CCc4ccccc43)c3ccccc23)cc1OC (stereo not drawn) | inactive: 87%
C=CCC(O)(CC=C)C(C)N (stereo not drawn) | inactive: 114%
CC(NCc1ccc(F)cc1)C(=O)NC1CCCCC1 (stereo not drawn) | inactive: 106%
COc1cccc(CNS(=O)(=O)c2cnc(N)nc2)c1 | inactive: 57%
O=C(O)CSCC(=O)Nc1ccccc1C(F)(F)F | inactive: 109%
COc1cc(OC)cc(C(=O)Nc2ccc(-c3nc4ccccc4s3)cc2C)c1 | inactive: 95%
Cc1cc(C)n(-c2nc(C)c(C)c(=O)n2CC(=O)Nc2ccc([N+](=O)[O-])cc2)n1 | inactive: 73%
COCC(=O)n1nc(-c2ccco2)nc1NCc1ccccc1Cl | inactive: 100%
FC(F)(F)COc1nc(OCC(F)(F)F)nc(OCC(F)(F)F)n1 | inactive: 103%
COc1ccc(CCNC(=O)c2ccc3c(c2)N(Cc2ccc(F)cc2)C(=O)c2ccccc2S3(=O)=O)cc1OC | inactive: 142%
CCc1nn(CC(=O)NCc2ccco2)c(=O)c2cc3c(OC)cccc3n12 | inactive: 98%

Compound | survival
C=CCc1cccc2cc(-c3nc4ccc(C)cc4[nH]3)c(=O)oc12 | active: -3%
CCOC(=O)c1ccc(NC(=O)Cn2cc(C(=O)C3CC3)c3ccccc32)cc1 | inactive: 85%
COc1ccccc1CNC(=O)CCc1c(C)c2cc3c(C)c(C)oc3cc2oc1=O | inactive: 114%
Cc1c(C(=O)Nc2cccc(C(F)(F)F)c2)sc2nc[nH]c(=O)c12 | inactive: 73%
Cc1ccccc1Nc1c(-c2c(F)cccc2Cl)nc2ccc(Br)cn12 | inactive: 88%
CCOC(=O)c1ccc(NC(=O)CCCn2c(=O)c3cccn3c3ccccc32)cc1 | inactive: 78%
Cc1ccc(-n2ncc3c(NCCCN4CCOCC4)ncnc32)cc1C | inactive: 51%
Cc1ccc(C)c(NC(=O)C2CCCN(c3ncnc4onc(C)c34)C2)c1 (stereo not drawn) | inactive: 110%
COc1ccc(OC)c(C2=NS(=O)(=O)N(C)C(C(=O)Nc3ccc(F)cc3F)=C2)c1 | inactive: 77%
N#Cc1nc(-c2ccc(COc3ccc(Cl)cc3)o2)oc1N1CCC(C(N)=O)CC1 | inactive: 49%
O=C(O)CCc1ccc(-c2ccccc2)n1Cc1ccco1 | inactive: 103%
O=C(Cn1c(=O)n(-c2ccccc2)c(=O)c2c3c(sc21)CCCC3)Nc1ccc(F)cc1F | inactive: 87%
Cc1cc(=O)n(Cc2ccc(Cl)cc2)c2c1c(C)nn2-c1ccccc1 | inactive: 131%
COc1ccc(OC)c(S(=O)(=O)NCCS(=O)(=O)N2CCN(c3ccccc3)CC2)c1 | inactive: 89%
COc1cccc(CNC(=O)c2cccc(-n3c(C)nc4cccnc43)c2)c1OC | inactive: 99%
O=C(NCC(c1ccco1)S(=O)(=O)c1cccs1)c1ccc(F)c(F)c1 (stereo not drawn) | inactive: 78%
CCCn1c(C(=O)OC)cc2c1ccn2C | inactive: 114%
CCc1ccccc1NC(=O)N1CCCn2nc(C)cc21 | inactive: 73%
O=C(NCc1noc2ccccc12)N1CCN(c2ccccc2)CC1 | inactive: 82%
O=C(Nc1ccc(NC(=O)C2CC23CCC3)cc1)C1CC12CCC2 (stereo not drawn) | inactive: 118%

Compound | survival
CC1CCN(c2nn3c(=O)c(C(=O)NC(C)C)cnc3s2)CC1 | inactive: 92%
Cc1nc(-c2ccccc2)sc1-c1ccc(SCC(=O)NCc2ccccc2Cl)nn1 | inactive: 40%
COc1ccc(OCC(=O)Nc2ccc(N3CCN(S(C)(=O)=O)CC3)cc2)cc1 | inactive: 110%
Cc1nn(C)c2c1c(-c1ccccc1)cc(=O)n2CC(=O)NC(C)c1ccccc1 (stereo not drawn) | inactive: 83%
N#C/C(=C\c1ccco1)S(=O)(=O)c1ccc(Cl)cc1 | inactive: 117%
CCOc1ccc(-c2cc3nc(C4CCN(C(=O)OC(C)(C)C)CC4)c(C(=O)Nc4cc(OC)ccc4OC)cn3n2)cc1 | inactive: 90%
Cc1ccc(Cl)cc1NC(=O)c1sc(-n2nc(C)c(Cc3ccc4c(c3)OCO4)c2C)nc1C | inactive: 83%
CCN1CCOC(=O)C1CC(=O)Nc1ccc(Br)cc1 (stereo not drawn) | inactive: 38%
O=C(Cn1c(=O)n(Cc2ccccc2)c(=O)c2sc3ccccc3c21)Nc1ccccc1 | inactive: 65%
CCCOc1ccc(C2c3c(-c4c(C)cc(C)cc4O)n[nH]c3C(=O)N2CCO)cc1 (stereo not drawn) | inactive: 93%
CCCCCn1c(CN2CCN(c3ccc(OC)cc3)CC2)nc2c1c(=O)[nH]c(=O)n2C | inactive: 81%
COc1ccc(-n2c(-c3ccco3)nc3c(cnn3-c3ccccc3Cl)c2=O)cc1 | inactive: 124%
Cc1ccc(Cl)cc1NC(=O)Nc1cccc(OCc2cc(=O)n3ccccc3n2)c1 | inactive: 64%
Cc1cc(=O)n(Cc2ccccc2)c2c1c(C)nn2C | active: -3%
COc1ccc(C)cc1NC(=O)CC1NCCNC1=O (stereo not drawn) | inactive: 70%
Cc1ccc(Nc2nnc(-c3ccc(C)c(S(=O)(=O)N4CCOCC4)c3)c3ccccc23)cc1 | inactive: 90%
Cc1cc(C)c2c(=O)cc(C(=O)Nc3sc4c(c3C(=O)NCC3CCCO3)CCCC4)oc2c1 (stereo not drawn) | inactive: 84%
CN(C)C(=O)CN(c1ccccc1)S(=O)(=O)c1ccccc1 | inactive: 96%
